Measurements taken from PMC8437434, “Hsp40s play complementary roles in the prevention of tau amyloid formation” (eLife, 2021).

T1: DNAJA2(Ydj1)^111-351 (Saccharomyces cerevisiae, UniProt P25491 111-351)
T1 construct: Ydj1, DNAJA2 homologue of Saccharomyces cerevisiae, residues 111-351 (CTDI with ZFLR, CTDII; no dimerization domain; monomeric, 27 kDa); 2H, 15N labelled; also called monomeric version of Ydj1; source: E. coli BL21 (DE3), purified (Ni-NTA, tag cleaved); not shown: His6, N-terminal, cleaved
T1 sequence (looked up): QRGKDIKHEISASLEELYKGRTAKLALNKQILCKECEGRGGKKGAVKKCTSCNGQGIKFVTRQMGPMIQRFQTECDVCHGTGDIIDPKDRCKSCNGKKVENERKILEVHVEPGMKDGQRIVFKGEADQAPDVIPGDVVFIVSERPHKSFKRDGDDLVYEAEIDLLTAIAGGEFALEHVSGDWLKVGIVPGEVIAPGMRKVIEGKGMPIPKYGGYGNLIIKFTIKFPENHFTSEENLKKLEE

B1: tau^4R ([…], C322A) (domain or fragment)
chain: not shown
notes: it is told apart by the assay (a2, a9, a11); Used 15N-labelled, deuterated or unlabelled; also called K18; monomeric tau; source: E. coli BL21 (DE3), purified (Ni-NTA, tag cleaved, Superdex 75); not shown: His6, N-terminal, cleaved
B2: preformed tau^4R fibrils (complex)
chain: not shown
notes: tau […] with C322A, assembled into amyloid fibrils; Same chain as m2 in the amyloid state; also called tau fibers; tau amyloid fibrils; source: E. coli BL21 (DE3), purified; preformed fibers; not shown: His6, N-terminal, cleaved
B3: tau^4R P301L (domain or fragment)
chain: not shown
notes: tau […] with C322A and the familial tauopathy mutation P301L; also called tau P301L mutant; source: E. coli BL21 (DE3), purified (Ni-NTA, tag cleaved, Superdex 75); not shown: His6, N-terminal, cleaved
B4: HSPB1 3D GXG variant (S15D, S78D, S82D, I181G, V183G) (natural protein)
chain: not shown
notes: also called HSPB1 dimer; source: E. coli BL21 (DE3), purified (Ni-NTA, tag cleaved, Superdex 200); not shown: His6, N-terminal, cleaved
B5: tau^4R P301S (domain or fragment)
chain: not shown
notes: tau […] with C322A and the familial tauopathy mutation P301S; also called tau P301S mutant; source: E. coli BL21 (DE3), purified (Ni-NTA, tag cleaved, Superdex 75); not shown: His6, N-terminal, cleaved
B6: tau C291S, C322S, L243C-AF488 (natural protein)
chain: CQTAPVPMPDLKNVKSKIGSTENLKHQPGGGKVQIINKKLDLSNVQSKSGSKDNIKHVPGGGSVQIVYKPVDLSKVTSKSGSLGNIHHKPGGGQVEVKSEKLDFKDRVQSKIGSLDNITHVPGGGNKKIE
modifications: AF488 (as printed: L243C-AF488)

Assays:
Details in all cases: both partners purified
DNAJA2(Ydj1)^111-351 = target: T1, DNAJA2(Ydj1)^111-351; assay: NMR titration; 1H-15N HSQC-TROSY of 200 µM 2H,15N-labelled DNAJB1^154-341, Ydj1^111-351 or Ydj1^256-409 alone or with twofold excess of deuterated monomeric tau^4R; 50 mM HEPES pH 7.0, 50 mM KCl, 25 °C; no heparin
DNAJB1 G194C-AF488 = target: T2, DNAJB1 G194C-AF488 (UniProt P25685 1-340, G194C, AF488 (as printed: G194C-AF488)); assay: fluorescence polarisation; steady-state binding of 100 nM AF488-labelled chaperone to preformed tau fibers; 37 °C; one-site model
T2 construct: DNAJB1 with G194C, labelled with AF488; also called fluorescently tagged DNAJB1

DNAJA2-AF488 = target: T3, DNAJA2-AF488 (UniProt O60884 1-412, AF488 (site not stated)); assay: as above
T3 construct: DNAJA2 labelled with AF488; also called fluorescently tagged DNAJA2

[1] = target: B4; assay: NMR titration; 1H-15N HSQC-TROSY of 200 µM 15N-tau, tau^4R or tau^4R P301S/P301L alone and with twofold excess (400 µM) of chaperone; intensity ratios I/I0; 50 mM HEPES pH 7.0, 50 mM KCl, 1 mM DTT, 25 °C; no heparin
DNAJA2 [2] = target: T4, DNAJA2 (UniProt O60884 1-412); assay: as above
T4 construct: DNAJA2, class A J-domain protein; homodimer (90 kDa dimer as printed); also called class A JDP; Hsp40; source: E. coli BL21 (DE3), purified (Ni-NTA, tag cleaved, Superdex 200); not shown: His6, N-terminal, cleaved

full-length DNAJB1 = target: T5, full-length DNAJB1 (UniProt P25685 1-340); assay: as above
T5 construct: DNAJB1, class B J-domain protein; homodimer; plasmid a gift from B. Bukau; 2H, 13CH3-ILVM labelled for methyl-TROSY NMR; also called class B JDP; Hsp40; source: E. coli BL21 (DE3), purified (Ni-NTA, tag cleaved, Superdex 200); not shown: His6, N-terminal, cleaved

[3] = target: T6, full-length tau (2N4R), C322S (UniProt P10636-8 1-441, C322S); assay: as above
T6 construct: microtubule-associated protein tau, longest splice isoform 2N4R, with C322S; 15N-labelled for NMR; also called 15N-tau; source: E. coli BL21 (DE3), purified (Ni-NTA, tag cleaved, Superdex 75); not shown: His6, N-terminal, cleaved

[4] = target: B4; assay: fluorescence polarisation; fluorescence anisotropy of 100 nM AF488-labelled monomeric tau with chaperones; 10 min at 37 °C; one-site model
DNAJA2 [5] = target: T4, DNAJA2; assay: as above

| binding result [1] | binding result (DNAJA2 [2]) | binding result (full-length DNAJB1) | Binder | also measured |
| --- | --- | --- | --- | --- |
|  |  |  | B1 | binding result (DNAJA2(Ydj1)^111-351): binds |
|  |  |  | B2 | Kd (DNAJB1 G194C-AF488): 1.7 µM; Kd (DNAJA2-AF488): 7.6 µM |
| binds | binds | binds | B3 |  |
|  |  |  | B4 | binding result [3]: binds |
| binds | binds | binds | B5 |  |
|  |  |  | B6 | Kd [4]: 250 µM; Kd (DNAJA2 [5]): 43 µM |
